The values that follow come from the supplement of paper PMC3334620.

Over roughly 33,000 sequences, “E-score (-0.5 to 0.5)” has its median near -0.01; the highest 2% begin near 0.26. The list shows a part of the results.

For the assay, the target named is Ste12 (UniProt P13574). As to the kind of experiment: PBM E-score (8-mer binding enrichment) (E-score (-0.5 to 0.5)); higher = stronger / more preferred TF binding; most listed sequences are background and not binding sites. The settings on record: protein concentration: 200 nM; construct: GST-DNA-binding domain. As for the experimental part:
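Universal 'all 10-mer' protein binding microarrays (Agilent AMADID 015681) probed with GST-tagged S. cerevisiae TFs (full-length or DBD) made by in vitro transcription/translation (PURExpress), about 100-200 nM. Bound TF was detected with fluorescent anti-GST. Each ungapped 8-mer (which stands for itself and its reverse complement) is scored by the PBM enrichment score (E-score), a modified Wilcoxon-Mann-Whitney statistic from -0.5 to +0.5, computed with the Universal PBM Analysis Suite. Scale: above 0.35 generally sequence-specific binding.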
In the case of CAATGGCA, the “PBM E-score” value worked out at 0.115.

In the case of AGCTATGC, the “PBM E-score” value was -0.334.

Take GAGTAGTA: the “PBM E-score” value worked out at 0.0379.

As for CCAGTACC, the “PBM E-score” value worked out at 0.0222.

For CCTACCCG, the “PBM E-score” value was -0.192.

As for CACATAGC, the “PBM E-score” value was -0.0351.

Take AGCCGGGG: the “PBM E-score” value was -0.15.

Turning to ACTATTTA, the “PBM E-score” value is 0.18.

Regarding CGATCGAA, the “PBM E-score” value was -0.121.

Take ATGGCGCA: the “PBM E-score” value is -0.118.

With AATCCGCG, the “PBM E-score” value was -0.175.

Consider CCCTTGGA, for which the “PBM E-score” value amounted to 0.0266.

Consider CCAGCGTA, for which the “PBM E-score” value is -0.11.

Turning to GGTGTCCA, the “PBM E-score” value is -0.24.

Consider ACTGAAAG, for which the “PBM E-score” value was 0.175.

In the case of GCGTTTCA, the “PBM E-score” value is 0.476.

As to CGTTACAC, the “PBM E-score” value was 0.122.

For the sequence CTACGCAC, the “PBM E-score” value is -0.148.

On to ATTACACC, for which the “PBM E-score” value is 0.0634.

For the sequence AAAAATGC, the “PBM E-score” value is 0.158.

GAATTCAA: the “PBM E-score” value was determined as 0.133.

For the sequence CCGAGGTA, the “PBM E-score” value was 0.00985.

GGCATCCA: the “PBM E-score” value was -0.277.

For GGTTAGCA, the “PBM E-score” value was -0.0625.

Regarding GAAGCTTC, the “PBM E-score” value was 0.0643.

For CTATTCGA, the “PBM E-score” value is -0.106.

On to CTTGCCGC, for which the “PBM E-score” value was determined as 0.0209.

As for CAAAGTCA, the “PBM E-score” value is -0.0468.

As for AGATGCAC, the “PBM E-score” value was -0.175.

In the case of AAGTATTG, the “PBM E-score” value amounted to 0.159.

Turning to GGAGCCGA, the “PBM E-score” value is -0.0732.

Take CCCAGTTC: the “PBM E-score” value is -0.0378.

TGTCCACA: the “PBM E-score” value is 0.082.

As for TATTTGCA, the “PBM E-score” value came out at 0.0371.

For the sequence ACACTGAT, the “PBM E-score” value was -0.0793.

Take GTGTTTGA: the “PBM E-score” value was found to be 0.301.

As for GCTCCGAA, the “PBM E-score” value came out at 0.0542.

In the case of AGTATTCC, the “PBM E-score” value amounted to 0.0656.

In the case of CAGCACTA, the “PBM E-score” value is -0.19.

In the case of CGACCCAC, the “PBM E-score” value was -0.0211.

Regarding AGGAAGCC, the “PBM E-score” value was -0.041.

With AATCTTCA, the “PBM E-score” value came to 0.179.

In the case of AGGAGATC, the “PBM E-score” value is 0.124.

AGCCTTAA: the “PBM E-score” value was -0.074.

As for AAGGGTAC, the “PBM E-score” value was -0.0596.

In the case of AACAAGTG, the “PBM E-score” value is -0.0717.

For GTGGAGCA, the “PBM E-score” value is -0.142.

For AAGCATTG, the “PBM E-score” value was -0.176.

In the case of GAACGGAC, the “PBM E-score” value was -0.321.

On to CGGGGAAG, for which the “PBM E-score” value was -0.011.

On to AGCTATAA, for which the “PBM E-score” value worked out at 0.076.

On to CCACGTAC, for which the “PBM E-score” value is -0.176.

Regarding CAGCGAGA, the “PBM E-score” value is -0.0417.

Regarding ATGAGCAC, the “PBM E-score” value was -0.266.

As to ACGTGAAG, the “PBM E-score” value is -0.0672.

For AAAAATCC, the “PBM E-score” value is 0.178.

For the sequence ATTCTGGC, the “PBM E-score” value is 0.105.

Regarding AAAGAAAC, the “PBM E-score” value is 0.212.

Turning to GATCCAGC, the “PBM E-score” value is -0.0767.

GCTAGGGA: the “PBM E-score” value is -0.104.

In the case of GGCCTAAC, the “PBM E-score” value is -0.0886.

On to CAACTGCC, for which the “PBM E-score” value was -0.127.

Turning to CCATGATC, the “PBM E-score” value was -0.156.

Consider ATCCACCC, for which the “PBM E-score” value turned out to be 0.00246.

TCAGTGAA: the “PBM E-score” value was determined as 0.0723.

In the case of ACCTGGCG, the “PBM E-score” value is -0.0246.

In the case of ACTGATTG, the “PBM E-score” value is -0.185.

Regarding AACCTATT, the “PBM E-score” value was 0.00865.

In the case of AGGGAACG, the “PBM E-score” value was -0.186.

As to CCCTAAGA, the “PBM E-score” value is -0.18.

Regarding CTAAAGAC, the “PBM E-score” value is -0.0162.

With CCAAGACC, the “PBM E-score” value was -0.0542.

For the sequence ATCGTTCA, the “PBM E-score” value was found to be 0.0393.

As to AGATATAA, the “PBM E-score” value was determined as 0.201.

On to CTTTTTCA, for which the “PBM E-score” value turned out to be 0.208.

For AGTACCAG, the “PBM E-score” value is -0.134.

In the case of AGTCTGTG, the “PBM E-score” value is -0.0796.

Turning to ACCTCTGC, the “PBM E-score” value came to 0.0141.

Consider GGACGTGA, for which the “PBM E-score” value was -0.248.

On to AATGCTTC, for which the “PBM E-score” value is -0.0314.

With AATCAGTA, the “PBM E-score” value was 0.117.

In the case of GCGATGTA, the “PBM E-score” value was 0.0264.

On to ATTACGTA, for which the “PBM E-score” value came out at 0.135.

As for GTTAGAAC, the “PBM E-score” value stood at 0.0739.

As for AGCTCGGG, the “PBM E-score” value was determined as 0.0188.

In the case of GAGTAAAC, the “PBM E-score” value is -0.0105.

Regarding ACCTTGAT, the “PBM E-score” value came to 0.113.

In the case of TGATGTAA, the “PBM E-score” value was 0.105.

As for GTGGTTCA, the “PBM E-score” value turned out to be 0.124.

Take AATGAGAC: the “PBM E-score” value was 0.0753.

TCAACCAA: the “PBM E-score” value was 0.0262.

Regarding CGGGCATA, the “PBM E-score” value was found to be 0.112.

In the case of AAGCTGCG, the “PBM E-score” value is -0.177.

With TAACCGGA, the “PBM E-score” value is 0.0556.

Take CACTACAC: the “PBM E-score” value is -0.126.

As for CGTTTGGA, the “PBM E-score” value came out at 0.0405.

Regarding CTTTGGCC, the “PBM E-score” value was -0.0517.

Turning to CTCAAATC, the “PBM E-score” value stood at 0.135.

AACCAAAG: the “PBM E-score” value worked out at 0.145.

For CCACGGCC, the “PBM E-score” value is -0.183.

For GCGTCTCA, the “PBM E-score” value worked out at 0.166.

As to ACCGCCCA, the “PBM E-score” value was -0.118.

For the sequence AAGAGACA, the “PBM E-score” value worked out at 0.105.

Take AACAGGGC: the “PBM E-score” value amounted to 0.0987.

Turning to CCGGGGTA, the “PBM E-score” value was -0.0884.

Consider CCAGGGGG, for which the “PBM E-score” value was -0.356.

Take AATGTGGG: the “PBM E-score” value was -0.0362.

For ACTGGCCC, the “PBM E-score” value was -0.0314.

Take GCGAACAA: the “PBM E-score” value is 0.0768.

On to TGATATCA, for which the “PBM E-score” value worked out at 0.0573.
